According to the supplement of paper PMC10441789:
The other results are listed elsewhere or left out. Antibody binding of pooled human sera (four to six donors per pool; dilution not stated) to peptides of the Trypanosoma cruzi antigen TSSA on microarrays. Quantile-normalised fluorescence in arbitrary units, mean of duplicate arrays; higher = more binding. No active / inactive call. The uninfected pools are read here as the healthy donors of the same country. The strongest signals lie near the top of the scale (about 60,000).

Assays:
Test in all cases: antibody binding signal (normalised fluorescence) (arbitrary fluorescence units); higher = stronger serum antibody binding to peptide
[1] = test system: pooled sera of chronic Chagas disease patients, Argentina
Method: (§1)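 Microarray of 15-residue peptides over residues 30-55 of Trypanosoma cruzi TSSAII, each with 1 to 10 substitutions at naturally variable positions, probed with one serum pool per country.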

[2] = test system: pooled sera of chronic Chagas disease patients, Bolivia
Method: as §1

[3] = test system: pooled sera of chronic Chagas disease patients, Brazil
Method: as §1

[4] = test system: pooled sera of chronic Chagas disease patients, Colombia
Method: as §1

[5] = test system: pooled sera of chronic Chagas disease patients, Mexico
Method: as §1

[6] = test system: pooled sera of chronic Chagas disease patients, USA
Method: as §1

[7] = test system: pooled sera of uninfected people, Argentina
Method: as §1

[8] = test system: pooled sera of uninfected people, Bolivia
Method: as §1

[9] = test system: pooled sera of uninfected people, Brazil
Method: as §1

[10] = test system: pooled sera of uninfected people, Mexico
Method: as §1

[11] = test system: pooled sera of uninfected people, USA
Method: as §1

| Sequence | antibody binding signal [1] | antibody binding signal [2] | antibody binding signal [3] | antibody binding signal [4] | antibody binding signal [5] | antibody binding signal [6] | antibody binding signal [7] | antibody binding signal [8] | antibody binding signal [9] | antibody binding signal [10] | antibody binding signal [11] |
| --- | --- | --- | --- | --- | --- | --- | --- | --- | --- | --- | --- |
| PPSGKEKKPAAGGTP | 1440 | 482 | 1570 | 2560 | 6250 | 2520 | 349 | 351 | 516 | 73.3 | 220 |
| NKPATGETPSPSGAS | 19000 | 32400 | 33500 | 283 | 538 | 25600 | 440 | 1150 | 565 | 1510 | 1480 |
| KDKKTATGEAPSQSG | 4190 | 3080 | 8130 | 194 | 214 | 14100 | 159 | 84.5 | 91.1 | 98.6 | 85 |
| KEKKAATGEAPSQPG | 11000 | 4230 | 33300 | 165 | 234 | 17200 | 337 | 81.4 | 119 | 77 | 114 |
| KDKKAAAGETPSPPG | 157 | 204 | 209 | 211 | 194 | 562 | 126 | 90.2 | 82.7 | 84.8 | 196 |
| TDKKAATGEAPSQPG | 21900 | 35300 | 40800 | 201 | 359 | 23700 | 348 | 79.3 | 376 | 185 | 141 |
| SGTDNKAAAGETPSP | 322 | 221 | 44100 | 484 | 208 | 1140 | 107 | 687 | 1150 | 255 | 679 |
| GTDNKPATGGTPSQP | 3330 | 1470 | 41100 | 2170 | 614 | 470 | 260 | 922 | 862 | 732 | 131 |
| DNKTATGGAPSQSGA | 621 | 529 | 907 | 624 | 456 | 392 | 346 | 196 | 457 | 411 | 226 |
| SSTPPSGTDNKTATG | 31300 | 41600 | 49100 | 1040 | 13400 | 21300 | 1040 | 674 | 1540 | 231 | 388 |
| ENKTAAGGAPSQSGA | 293 | 1600 | 708 | 5340 | 586 | 592 | 331 | 246 | 668 | 516 | 233 |
| DKKPAAGGTPSPPGA | 292 | 186 | 275 | 5230 | 287 | 1050 | 166 | 268 | 2680 | 103 | 188 |
| KTATGEAPSPSGASS | 14000 | 24600 | 12300 | 152 | 3400 | 18200 | 279 | 121 | 164 | 103 | 250 |
| TEKKAAAGEAPSQPG | 8040 | 20500 | 41400 | 489 | 499 | 13400 | 104 | 327 | 168 | 161 | 210 |
| SGTENKAATGETPSQ | 25800 | 22400 | 31800 | 172 | 223 | 15600 | 551 | 404 | 159 | 187 | 160 |
| EKKPAAGGTPSQSGA | 869 | 198 | 387 | 4940 | 347 | 1240 | 227 | 623 | 2610 | 154 | 832 |
| PPSGTDNKTAAGGAP | 34400 | 28300 | 38900 | 2300 | 3090 | 3640 | 1010 | 919 | 1310 | 281 | 708 |
| GKDNKPAAGEAPSPS | 1660 | 763 | 21100 | 1600 | 1590 | 15700 | 193 | 784 | 154 | 307 | 84.5 |
| TPPSGKDKKPAAGGT | 6060 | 727 | 2260 | 655 | 44200 | 595 | 186 | 369 | 632 | 99.9 | 140 |
| STPPSGKENKAAAGG | 28100 | 3510 | 10900 | 1070 | 4530 | 3850 | 3200 | 1190 | 145 | 145 | 365 |
| SGTDKKTATGGTPSQ | 1850 | 860 | 1730 | 7530 | 1280 | 1840 | 421 | 185 | 274 | 424 | 209 |
| KTAAGEAPSQSGASS | 377 | 17200 | 9760 | 161 | 769 | 2950 | 340 | 558 | 297 | 169 | 196 |
| KDNKTATGGAPSPPG | 462 | 245 | 284 | 1830 | 192 | 657 | 374 | 156 | 119 | 98.4 | 152 |
| KKTAAGETPSQSGAS | 261 | 338 | 733 | 339 | 548 | 792 | 281 | 170 | 94.9 | 180 | 341 |
| TEKKTAAGETPSPSG | 576 | 247 | 315 | 495 | 470 | 3660 | 154 | 230 | 689 | 490 | 1960 |
| SGTENKTAAGGTPSP | 29400 | 6100 | 13000 | 6260 | 1020 | 4260 | 393 | 450 | 806 | 1900 | 182 |
| KENKAATGEAPSQSG | 29800 | 34000 | 35400 | 237 | 294 | 25800 | 269 | 192 | 101 | 142 | 181 |

| Sequence | antibody binding signal [1] | antibody binding signal [2] | antibody binding signal [3] | antibody binding signal [4] | antibody binding signal [5] | antibody binding signal [6] | antibody binding signal [7] | antibody binding signal [8] | antibody binding signal [9] | antibody binding signal [10] | antibody binding signal [11] |
| --- | --- | --- | --- | --- | --- | --- | --- | --- | --- | --- | --- |
| KKAAAGEAPSPPGAS | 237 | 287 | 1780 | 268 | 165 | 8170 | 308 | 221 | 102 | 135 | 336 |
| KPATGEAPSPPGASS | 50700 | 48000 | 48500 | 333 | 283 | 39900 | 956 | 829 | 208 | 182 | 201 |
| ISTPPSGKEKKAATG | 11800 | 164 | 238 | 348 | 16700 | 663 | 320 | 420 | 98.7 | 91 | 117 |
| TPPSGTEKKTAAGEA | 33100 | 16600 | 27100 | 471 | 4230 | 1860 | 691 | 250 | 482 | 174 | 156 |
| SGTDKKAAAGGAPSP | 272 | 210 | 1000 | 10600 | 1100 | 1010 | 235 | 167 | 154 | 459 | 183 |
| STPPSGKDNKAAAGG | 24800 | 5530 | 7150 | 457 | 22000 | 2790 | 334 | 504 | 124 | 114 | 135 |
| KDKKAATGGTPSQSG | 306 | 271 | 180 | 221 | 917 | 339 | 185 | 77.3 | 174 | 228 | 105 |
| TPPSGKDKKPAAGEA | 7510 | 3290 | 6690 | 365 | 44500 | 1400 | 552 | 462 | 118 | 92.8 | 127 |
| TENKAAAGGTPSPSG | 35400 | 262 | 235 | 3340 | 357 | 1120 | 89.9 | 182 | 1590 | 144 | 140 |
| TPPSGTEKKTATGET | 30200 | 11300 | 21200 | 1260 | 2250 | 1240 | 619 | 158 | 243 | 141 | 126 |
| KEKKTATGGTPSQPG | 385 | 254 | 223 | 1410 | 282 | 1270 | 347 | 87.8 | 130 | 290 | 99.8 |
| TDNKPAAGGAPSQPG | 1820 | 1720 | 22000 | 888 | 254 | 584 | 139 | 275 | 459 | 337 | 166 |
| TDNKAATGGAPSQSG | 493 | 515 | 2460 | 538 | 642 | 1450 | 236 | 351 | 260 | 188 | 92.1 |
| ENKTAAGETPSQSGA | 122 | 775 | 3060 | 192 | 258 | 1820 | 108 | 210 | 214 | 160 | 128 |
| ISTPPSGKEKKPAAG | 15900 | 219 | 3700 | 452 | 21500 | 408 | 680 | 331 | 144 | 102 | 297 |
| ENKPATGEAPSPPGA | 46400 | 50900 | 51400 | 382 | 585 | 43000 | 1040 | 694 | 331 | 201 | 239 |
| KDKKAATGGAPSQPG | 428 | 200 | 1020 | 232 | 605 | 418 | 266 | 102 | 108 | 85.3 | 121 |
| PSGTDNKPATGGAPS | 33500 | 22600 | 44000 | 5120 | 1010 | 8440 | 319 | 1410 | 1260 | 650 | 320 |
| GTDNKPATGGAPSQP | 4910 | 16100 | 44500 | 1920 | 595 | 2670 | 325 | 1310 | 589 | 408 | 173 |
| KEKKPATGGAPSQSG | 530 | 310 | 268 | 322 | 374 | 634 | 223 | 194 | 106 | 144 | 299 |
| PSGTEKKPATGETPS | 36100 | 27900 | 31400 | 1800 | 2170 | 22800 | 737 | 600 | 1010 | 1990 | 463 |
| NKAAAGETPSQPGAS | 1580 | 8690 | 39600 | 241 | 256 | 2630 | 518 | 2100 | 450 | 342 | 1150 |
| DNKPAAGEAPSQPGA | 9070 | 29300 | 44900 | 322 | 193 | 18500 | 128 | 232 | 330 | 308 | 107 |
| GTEKKAATGETPSQP | 3340 | 2770 | 37800 | 678 | 925 | 11700 | 595 | 635 | 398 | 181 | 199 |
| TSSTPPSGTDNKPAT | 44300 | 50200 | 49000 | 5940 | 14100 | 32200 | 1730 | 702 | 574 | 1200 | 529 |
| SGKENKTATGGTPSQ | 3440 | 692 | 17600 | 5100 | 4090 | 19000 | 8180 | 1640 | 167 | 371 | 279 |
